The campaign covered roughly 44,000 compounds. About 340 (0.77%) were called active. Roughly 5% stayed inconclusive and do not appear here. Calls follow the shape of the dose curve; as a rule, active = well fitted inhibition curve with a large enough effect; inconclusive = small, poorly fitted or top-dose-only effect; inactive = flat fitted curve, though single readings scatter. The list shows a part of the results.
test: Acumen qHTS Assay for Inhibitors of the mTORC1 Signaling Pathway in MEF (Tsc2-/-, p53-/-) Cells: Sytravon; details: phospho-rpS6 immunofluorescence/PI, 24 h; series mostly up to 38.3 µM; activity change, negative = inhibition: at the top concentration;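 also: plate controls were DMSO for no effect and rapamycin for full effect; nearly all actives have a fitted effect of over 50% in size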
Procedure, shortened: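 Read-out: phospho-S6 Alexa-488 intensity over PI intensity per well, scored as % active cells using thresholds from rapamycin (7.5 nM) and DMSO controls. Tsc2-/-, p53-/- MEFs exposed to compound for 24 h; PI cell count recorded as viability.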

Row | SMILES | activity change, negative = inhibition
1 | CC(=O)N1c2ccccc2C(C)(c2ccc(C)cc2)CC1(C)C (stereo not given) | inactive: -16.9%
2 | O=C(NCc1ccccc1)c1cccn1-c1nnc(N2CCCC2)s1 | inactive: 0.286%
3 | COc1cc2c(cc1OC)C(COc1ccc3c(C)cc(=O)oc3c1)N(C(=O)c1ccccc1C)CC2 (stereo not given) | inactive: -7.39%
4 | COc1ccc(-n2nnnc2C2CCN(S(=O)(=O)c3ccc(C)cc3)CC2)cc1 | inactive: -0.856%
5 | COCCn1c(=O)[nH]c2cc(C(=O)N3CCN(c4ccccc4)CC3)ccc2c1=O | inactive: 5.95%
6 | CCOc1ccc(CNC(=O)c2nn(-c3ccc(OC)cc3)c(=O)c3c2c2ccccc2n3C)cc1 | inactive: 4.39%
7 | CC(=O)N1CCc2cc(S(=O)(=O)NC(Cc3ccccc3)C(=O)Nc3cc(C)ccc3C)ccc21 (stereo not given) | inactive: 1.96%
8 | CCOc1ccc(C(=O)Nc2ccc3nc(SCC(=O)N4CCc5ccccc54)sc3c2)cc1 | inactive: -2.8%
9 | CC1=C(c2ccc(C)cc2)S(=O)(=O)N(Cc2ccc(C(=O)Nc3ccc(C)c(F)c3)cc2)C1=O | inactive: -1.1%
10 | NC(=O)CSc1ncc2c(n1)-c1ccccc1N(Cc1ccc(F)cc1)S2(=O)=O | inactive: 1.07%
11 | Cc1ccc(-c2ccc(CCC(=O)O)n2-c2ccc(C(N)=O)cc2)cc1 | inactive: -0.638%
12 | COc1ccc(-c2n[nH]c3c2cnc2ccc(F)cc23)cc1 | inactive: 0%
13 | CCCSc1nc(-c2ccccc2)[nH]c1S(=O)(=O)c1ccc(C)cc1 | inactive: 4.27%
14 | Cc1ccc(-c2c(C(=O)NCCc3ccccc3)oc(=O)c3ccccc23)cc1 | inactive: -3.51%
15 | COc1ccc(-c2cc3ccc(O)c(CN4CCCC4)c3oc2=O)cc1 | inactive: 6.2%
16 | COc1ccc2c(c1)c1c(c(=O)n(Cc3ccccc3)c(=O)n1Cc1cccc(Cl)c1)n2C | inactive: -0.614%
17 | COc1ccccc1NC(=O)c1cnc(SCC(=O)N2CCOCC2)n(C)c1=O | inactive: -8.11%
18 | CCn1cc(C(=O)NCCCOC)c(=O)c2cc(S(=O)(=O)N3CCc4ccccc4C3)ccc21 | inactive: 2.22%
19 | Cc1cc(C)c2oc(-c3ccc(Cl)c(NC(=O)c4cccs4)c3)nc2c1 | inactive: -1.92%
20 | CCOC(=O)C1CCCN(CC(=O)Nc2cc(C)c3c(=O)oc4ccccc4c3n2)C1 (stereo not given) | inactive: -0.399%
21 | O=c1oc2ccc3ccccc3c2cc1-c1nnc(Nc2ccccc2F)s1 | inactive: -4.43%
22 | Cc1cc(C)cc(NC(=O)C2CCN(S(=O)(=O)c3cn(C)cn3)CC2)c1 | inactive: 7.27%
23 | Cc1cc2c(cc1NS(=O)(=O)c1cccc(C#N)c1)n(C)c(=O)c(=O)n2C | inactive: -8.2%
24 | CCc1cccc(C)c1NC(=O)Cn1nnc(-c2nc(-c3ccccc3F)no2)c1N | inactive: 2.76%

Row | SMILES | activity change, negative = inhibition
25 | CC1=Nc2cc(C(=O)N3CCC(C)CC3)ccc2Sc2ccc(Cl)cc21 | inactive: -26%
26 | Cn1cc(S(=O)(=O)N2CCCCCC2)cc1C(=O)Nc1ccc(Cl)c(C(F)(F)F)c1 | inactive: -0.522%
27 | COc1ccc(NS(=O)(=O)c2cc3c(cc2C)N(C(C)=O)CCO3)cc1 | inactive: -2.63%
28 | CCCOc1ccc(C2C(=O)N(C3CCC(C)CC3)CC(=O)N2Cc2cccc(OC)c2)cc1OC (stereo not given) | inactive: -4.14%
29 | COc1ccc(CCNC(=O)c2ccc(Cn3c(=O)c4ccccc4n(Cc4cccc(F)c4)c3=O)cc2)cc1OC | inactive: 3.9%
30 | COc1ccc(-c2nc3ccccc3o2)cc1NC(=O)COc1cc(C)cc(C)c1 | inactive: -2.34%
31 | CCc1ccc(NC(=O)CCc2c(C)nn(-c3ccc(N4CCCC4)nn3)c2C)cc1 | inactive: 1.22%
32 | Cc1oc2c(c1C(=O)Nc1ccc(OC(F)(F)F)cc1)C1=NCCN1C=N2 | inactive: 0.938%
33 | COc1ccc(NS(=O)(=O)c2cnc(N)nc2)cc1Cl | inactive: -0.961%
34 | CC(=O)c1ccc(Oc2ncnc3c2oc2ccccc23)cc1 | inactive: -0.622%
35 | COc1ccc(NC(=O)CCS(=O)(=O)c2cc3c4c(c2)CCN4C(=O)CC3)c(OC)c1 | inactive: -3.7%
36 | COc1ccc(C(=O)c2c(N)c(C(=O)Nc3ccccc3Cl)c3ccccn23)cc1 | inactive: -17.4%
37 | Cc1cc(=O)[nH]c2nnc(SCC(N)=O)n12 | inactive: 0.191%
38 | CC1CCN(C(=O)Cn2cc(SCC(=O)NCc3ccc(F)cc3)c3ccccc32)CC1 | inactive: -8.88%
39 | COc1cc(C(=O)NCCc2sc(-c3ccc(C)cc3)nc2C)cc(OC)c1OC | inactive: -6.17%
40 | Cc1nnc(N2C(=O)c3oc4ccccc4c(=O)c3C2c2cccc(OCCC(C)C)c2)s1 (stereo not given) | inactive: 2.87%
41 | CCCCc1ccc(C(=O)c2c(N)c(C(=O)Nc3cccc(OC)c3)c3ccccn23)cc1 | inactive: -0.793%
42 | COCCCNC(=O)c1c(NC(=O)Cc2coc3cc(C)ccc23)sc2c1CCCC2 | inactive: -6.91%
43 | COc1ccc(C(=O)/C=C/c2cn(CC(O)CN3CCCCCC3)c3ccccc23)cc1OC (stereo not given) | inactive: -15.4%
44 | Cc1ccc(-c2noc(-c3ccc(N4CCOCC4)c([N+](=O)[O-])c3)n2)cc1 | inactive: 0%
45 | Cc1ccc(C(=O)c2oc3ccccc3c2NC(=O)COc2ccccc2C)cc1 | inactive: 0.847%
46 | Cc1ccccc1CN1C(=O)c2ccccc2S(=O)c2ccc(C(=O)N3CCOCC3)cc21 (stereo not given) | inactive: 1.86%
47 | O=[N+]([O-])c1cc(-c2nc(-c3ccccc3)no2)ccc1NCc1ccco1 | inactive: 1.83%
48 | Cn1c(=O)c2cc(C(=O)NCCCN3CCN(c4ccc(F)cc4)CC3)sc2c2ccccc21 | inactive: 0.286%

Row | SMILES | activity change, negative = inhibition
49 | COc1ccc(CCNC(=O)CCCn2c(=O)c3ccccc3n(CC(=O)Nc3ccccc3C)c2=O)cc1OC | inactive: -9.49%
50 | Cc1ccc(C2CC(=O)N(Cc3ccc(F)cc3)c3c2c(C)nn3-c2nc(C)cc(C)n2)cc1 (stereo not given) | inactive: -17.5%
51 | Cc1ccccc1CNC(=O)CN1C(=O)CCCc2ccccc21 | inactive: -5.6%
52 | Cc1ccc2scc(N3CCCCC3C)c(=O)c2c1 (stereo not given) | inactive: 2.23%
53 | COc1ccc(Cn2c(SCC(=O)N3CCN(c4ccc(F)cc4)CC3)nc3ccccc32)cc1 | inactive: 2.41%
54 | O=C(CN1CCN(Cc2ccc(F)cc2)C1=O)NCc1ccc(F)cc1 | inactive: -11.8%
55 | Cc1ccc(NC2(c3ccccc3)C(=O)c3ccccc3C2=O)cc1F | inactive: -16.3%
56 | O=C(COc1ccccc1)N(Cc1cccnc1)c1nc2c(F)cc(F)cc2s1 | inactive: -7.45%
57 | Cc1sc(C2C(C#N)=C(N)N(c3ccc(Cl)cc3)C3=C2C(=O)CCC3)cc1CN1CCOCC1 (stereo not given) | inactive: 7.38%
58 | CC1CCN(S(=O)(=O)c2ccc3c(c2)N(CC(=O)NCCCOC(C)C)C(=O)CO3)CC1 | inactive: -11.6%
59 | CCc1ccccc1NC(=O)CN(c1ccccc1OC)S(=O)(=O)c1ccc(C)cc1 | inactive: -2.51%
60 | COCCNC(=O)Cn1c(-c2cccs2)cc2cc(Cl)ccc21 | inactive: -11.5%
61 | COc1ccc(C2C(=O)N(C3CCCCCC3)CC(=O)N2CCc2ccc(Cl)cc2)cc1OC (stereo not given) | inactive: 12.7%
62 | COCCNC(=O)CN1C(=O)COc2ccc(S(=O)(=O)N3CCCCCC3)cc21 | inactive: 6.57%
63 | CCC(C(=O)NC1CCCCC1)n1c(SCc2ccccc2F)nc2ccncc21 (stereo not given) | inactive: -2.81%
64 | CCc1ccc(NC(=O)CSc2ccc(-c3sc(-c4ccccc4)nc3C)nn2)cc1 | inactive: -1.22%
65 | Cc1ccccc1C(=O)Nc1cccc(NC(=O)c2ccc(C(C)(C)C)cc2)c1 | inactive: 8.48%
66 | CCN(Cc1ccccc1)c1nc2c(S(=O)(=O)c3ccccc3)nnn2c2ccc(Cl)cc12 | inactive: -1.49%
67 | Cc1nn(C(C)C(=O)NCCc2ccccc2)c(=O)c2c1sc1ccccc12 (stereo not given) | inactive: 0.994%
68 | CCOc1ccc(C2C(=O)N(C3CCCCC3)CC(=O)N2Cc2ccc(F)cc2)cc1OC (stereo not given) | inactive: 7.91%
69 | Cc1cccc(CNC(=O)c2ccc3c(c2)N(C)CCS3)c1 | inactive: -2.96%
70 | CCc1ccc(C(c2ccccc2)c2c(C)[nH]c3ccccc23)s1 (stereo not given) | inactive: -0.243%
71 | Cc1cc(C)c(NC(=O)CSc2nc3ccccc3c3nc(-c4ccccc4)nn23)c(C)c1 | inactive: -4.14%
72 | COc1ccc(NC(=O)Cn2c(=O)n(CCCC(=O)NCc3ccccc3Cl)c(=O)c3ccccc32)c(OC)c1 | inactive: -1.74%

Row | SMILES | activity change, negative = inhibition
73 | Cc1ccccc1CNC(=O)Cn1nc(C)c2nn(-c3ccc(Cl)cc3)c(C)c2c1=O | inactive: 2.7%
74 | CCOC(=O)c1sc2ccccc2c1S(=O)(=O)Nc1cc(OC)ccc1OC | inactive: 1.32%
75 | Cc1ccc(C)c(N2CCN(S(=O)(=O)c3ccc4[nH]c5c(c4c3)CCCC5)CC2)c1 | inactive: -10%
76 | COc1ccc(CNCc2c(C(=O)O)c(C)n(Cc3ccccc3C)c2C)cc1OC | inactive: 0.717%
77 | COc1ccc(N2CCN(c3ncccc3-c3nc(-c4ccccc4C)no3)CC2)cc1 | inactive: -1.97%
78 | COc1ccc(CNS(=O)(=O)c2ccc(C(=O)N(C)C)s2)cc1 | inactive: 0%
79 | N#Cc1nc(-c2ccc(COc3ccc(Cl)cc3)o2)oc1N1CCCCC1 | inactive: 1.41%
80 | COc1ccccc1N1CCN(c2nc3c(S(=O)(=O)c4ccccc4)nnn3c3ccc(Cl)cc23)CC1 | inactive: -2.9%
81 | CCOC(=O)c1scc(-c2ccccc2)c1S(=O)(=O)Nc1ccccc1OC | inactive: 1.34%
82 | O=C1c2[nH]nc(-c3ccccc3O)c2C(c2cccc(OCc3ccccc3)c2)N1CCCO (stereo not given) | inactive: -1.21%
83 | Fc1ccc(N2CCN(Cc3nnc(-c4ccccc4Cl)o3)CC2)cc1 | inactive: 6.19%
84 | CCc1cccc(C)c1Nc1c(-c2ccc(F)cc2)nc2sccn12 | inactive: -0.0981%
85 | COc1ccc(Cn2c(SCc3ccc(C(=O)NC4CCCCC4)cc3)nc3ccncc32)cc1 | inactive: -1.1%
86 | CCOc1ccc(NC(=O)CSc2ncc(S(=O)(=O)c3ccc(F)c(C)c3)c(=O)[nH]2)cc1 | inactive: -0.605%
87 | Cc1ccc2c(=O)c(C(=O)c3ccccc3)cn(CC(=O)NCc3ccccc3)c2n1 | inactive: -9.31%
88 | Cc1ccc(CNc2nc(-c3ccco3)nn2C(=O)c2ccccc2[N+](=O)[O-])cc1 | inactive: -6.54%
89 | COc1ccc(N2CC(C(=O)NCCS(=O)(=O)N3CCN(c4ccccc4)CC3)CC2=O)cc1 (stereo not given) | inactive: -4.86%
90 | COc1ccc(S(=O)(=O)N2CCC(Oc3cccc(C(F)(F)F)c3)CC2)cc1OC | inactive: 3.51%
91 | CC(C)OCCCNC(=O)c1cn(C)c2ccc(S(=O)(=O)N(C)C3CCCCC3)cc2c1=O | inactive: -10.4%
92 | Cc1c(C(=O)N2CCCC2)oc2c1-c1nn(CC(=O)NCc3ccc(OC(C)C)cc3)cc1CC2 | inactive: -10.1%
93 | CCc1cccc(NC(=O)c2cnc(N3CCOCC3)c3ccccc23)c1 | inactive: -16.5%
94 | CN(CC(=O)Nc1ccc(OC(F)(F)F)cc1)S(=O)(=O)c1ccc2c(c1)CCC(=O)N2 | inactive: 0.0545%
95 | Cc1ccc2occ(-c3cc(-c4ccccc4)nc4c3COc3ccccc3-4)c(=O)c2c1 | inactive: 2.61%

Source: PubChem BioAssay AID493208 (National Center for Advancing Translational Sciences (NCATS), 2011)
